# Reference: PubChem BioAssay AID686979 (National Center for Advancing Translational Sciences (NCATS), 2013)
# About 50,000 (12%) of roughly 420,000 compounds were called active. The inconclusive results got no clear call from the source; some entries with a clear call stand among them for comparison. The call rests on the fitted dose curve; in most records, active means well fitted inhibition curve with a large enough effect; inconclusive means small, poorly fitted or top-dose-only effect; inactive means flat fitted curve, though single readings scatter. Potencies of inconclusive entries are left out as doubtful fits.
# Experiment: qHTS for Inhibitors of human tyrosyl-DNA phosphodiesterase 1 (TDP1): qHTS in cells in presence of CPT; further: nearly all actives have a fitted effect of over 55% in size
# Conditions: chicken DT40 Tdp1-/-;hTDP1 cells + 20 nM CPT, ATP luminescence, 48 h; activity change, negative = growth inhibition: at 46.2 µM (top of the series)
# In short: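 Chicken DT40 Tdp1-/- cells stably complemented with human TDP1 were seeded at 400 cells/well in medium containing 20 nM camptothecin, exposed to pin-transferred compounds, and grown at 37 °C for at least 48 hr. Viability was read as ATP luminescence.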
# On the % scale 0 is the no-effect control and ±100 the full control effect; potency means the concentration at half of the fitted maximal effect; tags describe the fitted curve by direction and shape.
SMILES,Potency,"activity change, negative = growth inhibition"
CC(CCc1ccccc1)NC(=O)C(C)OC(=O)c1ccco1 (stereo not given),inactive,–
CCN(CC)c1cc2nc(C)n(Cc3ccccc3)c(=O)c2cc1NC(=O)C1CC1,"inconclusive [inhibitor, single point]",–
COc1ccc(C2=NN(CC(=O)NCCCN(C)c3ccccc3)C(=O)CC2)cc1,"inconclusive [inhibitor, single point]",–
CCOc1ccc(NS(=O)(=O)c2csc(C(N)=O)c2)cc1,"inconclusive [inhibitor, partial curve]",–
Cc1ccc(N(C)C(=O)c2cc(S(=O)(=O)N3CCCCC3)c[nH]2)cc1,–,inconclusive: -32% [inhibitor]
O=[N+]([O-])c1ccc2c(c1)C(=NO)c1cc(Cl)c(Cl)cc1-2,"inconclusive [inhibitor, single point]",–
Oc1ccc(-c2[nH]ncc2-c2cccc3cccnc23)c(O)c1,active: 23.1 µM,–
Nc1c(C(=O)NCCN2CCOCC2)c2nc3ccccc3nc2n1CCc1ccccc1,"inconclusive [inhibitor, single point]",–
COCCNC(=O)C(=O)NCC(c1cccnc1)N1CCN(c2ccccc2F)CC1 (stereo not given),inactive,–
CC#CC(=O)N1CCCC(Cc2cccc(OC)c2)(C(=O)OCC)C1 (stereo not given),inactive,–
C=Cc1ccc(CN2CCCN(Cc3ccc(Cl)cc3)S2(=O)=O)cc1,"inconclusive [inhibitor, single point]",–
Cc1ccc(C)c(NS(=O)(=O)c2cc3c(cc2Cl)NC(=O)CO3)c1,"inconclusive [inhibitor, single point]",–
COC(=O)Cn1nc(-c2ccc(C)cc2)c2ccccc2c1=O,inactive,–
CCn1c(=O)c(C(=O)Nc2ncccc2C)c(O)c2ccccc21,active: 2.31 µM,–
C/C(=N\NC(=O)COc1ccccc1F)c1cc2ccccc2o1,"inconclusive [inhibitor, partial curve]",–
COc1ccc(CN2CCN(C(=O)c3ccc(S(=O)(=O)NCc4ccco4)cc3)CC2)cc1,"inconclusive [inhibitor, single point]",–
CCOC(=O)c1ccc(NC(=O)CC2C(=O)N(c3ccc(F)cc3)C(=O)N2Cc2ccc3c(c2)OCO3)cc1 (stereo not given),"inconclusive [inhibitor, single point]",–
C/C(=N\NC(N)=S)C1(C)CCCCC1,"inconclusive [inhibitor, single point]",–
CC(Nc1nc(-c2cccc(Br)c2)cs1)c1nc2cc(Cl)c(N3CCCCC3)cc2n1CCOCCO (stereo not given),"inconclusive [inhibitor, single point]",–
O=C(COc1ccc(F)c(Cl)c1)N1CCCCCCC1,inactive,–
COCCCNc1ncnc2c1cnn2-c1ccc(F)cc1,active: 5.17 µM,–
COc1cccc(CN(C)C(=O)c2cnn(-c3ncc4c(n3)-c3ccccc3CCC4)c2C)c1,active: 18.4 µM,–
CCOc1ccc(Br)cc1S(=O)(=O)NCCN1CCCC1,inactive,–
COc1ccc(S(=O)(=O)NCc2ccncc2)cc1NC(=O)c1ccc(Cl)cc1,active: 16.4 µM,–

SMILES,Potency,"activity change, negative = growth inhibition"
Cc1ccc(NC(=O)c2cc(C(=O)Nc3ccc(C)cc3)n(C)n2)cc1,inactive,–
O=C(c1cc(-c2ccccc2Cl)nc2ccc(Br)cc12)N1CCN(c2ccccn2)CC1,"inconclusive [inhibitor, single point]",–
O=c1c2ccccc2sn1-c1ccccc1,active: 2.59 µM,–
O=S(=O)(c1ccc(Cl)cc1)N1CCN=C1SCc1cccc(Cl)c1,"inconclusive [inhibitor, single point]",–
Cc1cc(C)c[n+](-c2nc3ccccc3nc2[N-]S(=O)(=O)c2ccc(Br)s2)c1,"inconclusive [inhibitor, single point]",–
CCOc1ccccc1NC(=O)c1cc2ccccc2o1,inactive,–
Cn1c(N)c(C(=O)COC(=O)c2ccccc2C(=O)c2ccc(Cl)cc2)c(=O)n(C)c1=O,"inconclusive [inhibitor, single point]",–
Cc1onc(-c2ccccc2Cl)c1C(=O)N1CCCCC1C (stereo not given),–,inconclusive: -34.3% [inhibitor]
Cc1onc(-c2c(Cl)cccc2Cl)c1C(=O)Nc1ccc2c(c1)OCCO2,"inconclusive [inhibitor, partial curve]",–
COc1ccc(CN2C(=O)c3ccccc3C2c2nnnn2-c2c(C)cccc2C)cc1OC (stereo not given),"inconclusive [inhibitor, single point]",–
COC(=O)CCCC1=CC2=C(c3ccccc3)C(=O)C(C)(OC(=O)C3CCCC3)C(=O)C2=CN1C1CCCC1 (stereo not given),"inconclusive [inhibitor, single point]",–
Cc1ccccc1C(=O)NCC(c1ccco1)N1CCc2ccccc2C1 (stereo not given),"inconclusive [inhibitor, single point]",–
CC1CCCN(c2ccc(C(=O)OCn3nnc4ccccc4c3=O)cc2[N+](=O)[O-])C1 (stereo not given),"inconclusive [inhibitor, single point]",–
COc1c(C)cc(C(=O)C2CCCN(C(=O)c3cc(C4CC4)[nH]n3)C2)cc1C (stereo not given),–,inconclusive: -33.3% [inhibitor]
CCCn1c(NCc2ccccc2C)nc2ccccc21,"inconclusive [inhibitor, partial curve]",–
COc1ccc(-n2cc(-c3ccccc3)nc2SCC(=O)Nc2ccccc2)cc1Cl,"inconclusive [inhibitor, single point]",–
COC(=O)c1cc(CC(=O)c2ccc(O)cc2O)c(C)o1,inactive,–
O=C(c1ccco1)N1CCN(C(=O)c2cn(-c3ccccc3)nc2-c2ccc(F)cc2)CC1,"inconclusive [inhibitor, partial curve]",–
CC(OC(=O)CNC(=O)c1ccc2ccccc2c1)C(=O)NC1CCCCC1C (stereo not given),inactive,–
CS(=O)(=O)c1cccc(C(=O)Nc2ccccc2Cc2ccccc2)c1,inactive,–
CC(C)CNc1ncnc2c1sc1nc(N3CCOCC3)c3c(c12)CC(C)(C)OC3,"inconclusive [inhibitor, single point]",–
O=C(CCC1CCCN(c2ncccn2)C1)N1CCN(c2ccccn2)CC1 (stereo not given),"inconclusive [inhibitor, single point]",–
Cc1ccc(C)c(C(=O)CN2C(=O)NC3(CCc4ccccc43)C2=O)c1 (stereo not given),"inconclusive [inhibitor, single point]",–
Cc1ccc(S(=O)(=O)N2CCC(=O)N(CCOCc3ccccc3)CC2)cc1,"inconclusive [inhibitor, single point]",–

SMILES,Potency,"activity change, negative = growth inhibition"
CCC(C)(C)C1CCC2(CC1)NC(=O)N(CC(=O)Nc1nc(-c3ccc(C)cc3)cs1)C2=O (stereo not given),"inconclusive [inhibitor, single point]",–
O=C(NCc1ccccc1Cl)c1ccc2c(c1)OCO2,"inconclusive [inhibitor, single point]",–
O=C(NCCCn1ccnc1)c1ccc2nccnc2c1,"inconclusive [inhibitor, full curve, poor fit]",–
O=C(COC(=O)c1ncc(Cl)c(Cl)c1Cl)Nc1cccnc1Cl,inactive,–
O=C(CCN1CCCCC1)c1ccc2c(c1)OCO2,active: 7.31 µM,–
CN(C)N=C1c2cc(S(=O)(=O)N(C)C)ccc2-c2ccc(S(=O)(=O)N(C)C)cc21,active: 4.61 µM,–
COc1ccc([C@H]2CC(=O)C=C(c3ccc(OC(F)(F)F)cc3)C2)cc1OC,"inconclusive [inhibitor, single point]",–
O=C(O)c1ccc(CNCc2cccc(OCc3ccc(F)cc3)c2)cc1,"inconclusive [inhibitor, partial curve, poor fit]",–
CCOc1ccc(NC(=O)NCCCSC2CCCCC2)cc1,"inconclusive [inhibitor, single point]",–
CCC(C)NCC(=O)Nc1cc(S(=O)(=O)N(CC)c2ccccc2)ccc1Cl (stereo not given),active: 20.6 µM,–
Cc1ccc(S(=O)(=O)N2CCN(C(=O)CN3C(=O)NC(C)(CCC(C)C)C3=O)CC2)c(C)c1 (stereo not given),"inconclusive [inhibitor, partial curve]",–
Cc1ccc(-c2nnc(SCC(=O)N(C)C)nc2-c2ccc(C)cc2)cc1,"inconclusive [inhibitor, single point]",–
O=C(COC(=O)/C=C/c1ccccc1[N+](=O)[O-])Nc1ccc2[nH]c(=O)[nH]c2c1,inactive,–
Cc1cccc(C)c1NC(=O)C1(C)CSCC(=O)N1CCC(C)C (stereo not given),inactive,–
O=C(c1ccccc1F)N1CCN(c2cnn(-c3cccc(Cl)c3)c(=O)c2Cl)CC1,"inconclusive [inhibitor, single point]",–
CC1(C)Cc2cccc(OC(=O)NC3CCCCC3)c2O1,"inconclusive [inhibitor, single point]",–
Cc1ccc2c(c1)C(c1ccc(F)cc1)N(C(=O)c1ccccc1Br)CC(=O)N2 (stereo not given),inactive,–
COc1ccc(-n2nc3c(N4CCCC(C(=O)NCCc5ccc(C)cc5)C4)nnc(C)c3c2C)cc1 (stereo not given),active: 3.26 µM,–
O=C(Nc1ccc(Cl)cn1)c1ccc2nccnc2c1,"inconclusive [inhibitor, single point]",–
Cc1cc(OC(C)C(=O)NCc2ccncc2)c2c(C)c(C)c(=O)oc2c1 (stereo not given),"inconclusive [inhibitor, single point]",–
CC(C)c1ccc(C2(C)NC(=O)N(C(C)C(=O)Nc3ccc(N4CCOCC4)cc3)C2=O)cc1 (stereo not given),active: 14.6 µM,–
CCN(CC(=O)Nc1ccccc1C(=O)OC)S(=O)(=O)c1ccc(OC)cc1,"inconclusive [inhibitor, single point]",–
